The shares of active, inactive and inconclusive entries below differ from those in the screen. No potency is given beside an inconclusive call; the fits are too rough. Calls of active or inactive are those of the source. The call rests on the fitted dose curve; in most records, active means well fitted cell-killing curve with a large enough effect; inconclusive means small, poorly fitted or top-dose-only effect; inactive means flat fitted curve, though single readings scatter.
Test: Cellular viability qHTS for adrenocortical cancer (ACC) cell line NCI-H295R (AID 1963990); further: nearly all actives have a fitted effect of over 60% in size
Details: CellTiter-Glo ATP luminescence, 48 h; series mostly up to 46.1 µM
Summary of the method: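 Compound titrations (up to 46 uM final) are applied to NCI-H295R cultures for 48 h at 37C. Viable cell number is estimated by CellTiter-Glo signal, normalised to DMSO and doxorubicin controls.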
Potency means the concentration at half of the fitted maximal effect; tags describe the fitted curve by direction and shape.

Structure (SMILES) | Potency
Cc1nc2ccc(-n3ncc(C(=O)c4cc5ccccc5[nH]4)c3N)cc2[nH]1 | inactive
FC(F)(F)C(F)(F)C(F)(F)C(F)(F)C(F)(F)C(F)(F)C(F)(F)C(F)(F)Br | inconclusive [cytotoxic, partial curve, poor fit]
Cc1ccnc(NS(=O)(=O)c2ccc(N)cc2)n1 | inconclusive [cytotoxic, partial curve, poor fit]
O=C1NC(=O)/C(=C\c2ccc(-c3ccc(F)cc3)o2)S1 | inactive
C/C(=N\O)[C@@H](C)NCC(C)(C)CN[C@H](C)/C(C)=N/O | inconclusive [cytotoxic, single point]
C=CC(=O)Nc1ccc(F)c(-c2ncnc3[nH]cc(C(=O)OCC)c23)c1 | inconclusive [cytotoxic, partial curve, poor fit]
COc1ccccc1N1CCN(CCCNc2cc(=O)n(C)c(=O)n2C)CC1 | inconclusive [cytotoxic, single point]
Cn1cc(-c2ccc3c(c2)CCN3C(=O)Cc2cccc(C(F)(F)F)c2)c2c(N)ncnc21 | inconclusive [cytotoxic, partial curve]
COc1ccc([C@@H]2Sc3ccccc3N(CCN(C)C)C(=O)[C@@H]2OC(C)=O)cc1 | inactive
OC[C@H]1O[C@@H](n2cnc3c(=S)nc[nH]c32)[C@H](O)[C@@H]1O | active: 2.31 µM
Cc1ncc(CSSCc2cnc(C)c(O)c2CO)c(CO)c1O | inactive
CCOc1ncc(F)c(=O)[nH]1 | inconclusive [cytotoxic, single point]
